Results published in patent US12599649B2, “Bioactive polypeptides for improvements in plant protection, growth and productivity” (priority 2017, dated 2026).

Assays:
soybean [1] = experiment: RHPP with N-RAGE MAX fertilizer on soybean, yield (Example 24); type: in vivo
Text: The Gm.RHPP bioactive priming polypeptide (SEQ ID NO: 600) was applied as a foliar application with a liquid foliar fertilizer, N-RAGE MAX (21-1-3 N—P-K), to two soybean varieties (AG3536 and AG3832).

corn = experiment: Foliar Gm.RHPP on V5 corn, yield (Example 39); type: in vivo
Procedure: In total, the trial was conducted at 6 locations in the US Midwest (IL, IN, IA), with 1-2 hybrids per location and 3 replicated plots per hybrid. […] The average change in Bu/Ac was compared to the yield of plants grown from the surfactant control and reported as the combined average yield (Bu/Ac) for the 6 locations (11 replicated plots in total) and as overall change in Bu/Ac as compared to control plants.

soybean [2] = experiment: Foliar Gm.RHPP on R1 soybean, pod number (Example 40); type: in vivo; conditions: 300 nM, 31 days after first foliar treatment
Procedure: Plants were then placed under a long day conditions consisting of 16/8 light/day cycle and temperature 21-26° C. to promote early flowering and speed up progression to the reproductive (R) growth stage. When the soybean plants had reached the R1 stage of development a foliar application containing the Gm.RHPP (SEQ ID NO: 600) polypeptide at a final concentration of 300 nM and a non-ionic surfactant of 0.10% (NIS90:10; Precision Laboratories, LLC) was applied to soybean. Soybean plants were provided with the Gm.RHPP formulation and a non-ionic surfactant only control. Both the Gm.RHPP and the non-ionic surfactant control treatment were applied to 18 plants per treatment. Six equidistant sprays were provided approximatey 15 cm above per each plant for complete coverage of foliage. After treatment application, the R1 soybean plants were returned to the control environmental growth room. […] Soybean pods of more than 1 mm in length were counted on the plants after 31 days from the first foliar spray treatment applications. […] A p value (p<0.05 for significance) was calculated from a paired T-test comparison between pod number from plants that received the Gm.RHPP and the non-ionic surfactant control treatment applications.

tomato = experiment: Foliar Bt.4Q7Flg22 and Gm.RHPP on Roma tomato, fruit weight (Example 41); type: in vivo
Procedure: Small scale plots were designed to simulate commercial growing conditions for tomatoes. Tomato plants, variety Roma were started from transplants that were grown in a greenhouse for 45 days prior to planting into 2 raised field row beds with 2 feet (0.6 meters) between each transplant with an average of 30 plants per row bed. […] Tomatoes were grown on raised beds covered with black plastic mulch. Plants were grown using drip irrigation and fertilizer (80 lbs. or 36.3 kg) nitrogen; 100 lbs. (45.4 kg) phosphate, and 100 lbs. (45.4 kg) potash or potassium) applied following grower guidelines throughout the growing season to provide for optimum plant growth and yields. Small raised bed plots were designed to simulate the planting densities used by commercial growers that generally plant 2,600 to 5,800 plants per acre in single rows with 45.7 to 76.2 cm between plants in the row on 1.5- to 2-meter centers. [Orzolek et al., “Agricultural Alternatives: Tomato Production.” University Park: Penn State Extension, 2016].
Foliar treatments using Bt.4Q7Flg22 and Gm.RHPP were applied on the tomato plants directly at early bloom (first flower) stage. […] Plants were treated in replicates of 6 plants, with three replicates per treatment. Effect of the foliar treatments on the yield obtained from tomatoes was determined and reported as normalized to no spray control treatment. The average fruit weight per tomato plant is reported as the combined average for 2 separate harvests and the average percentage change in fruit weight as compared to the no-spray control in Table 61.

Phakopsora pachyrhizi = experiment: Asian soybean rust severity on soybean, Paraguay field trials (Example 53); type: in vivo; conditions: 150 and 300 mL/Ha, two foliar applications from R1
soybean [3] = experiment: Flg22 and RHPP on R2 soybean, field yield (Examples 3-4); conditions: 11 sites
[4] = 1 Fl. oz/Ac (300 nM) with N-RAGE MAX fertilizer, R2, variety AG3536
[5] = both soybean varieties, foliar at R2, use rate Fl. oz/Ac: N-RAGE MAX 128, RHPP 4.0
[6] = 8.0 Fl. oz/Ac, 6 locations combined
[7] = V5 corn, foliar 100 μM at 8.0 Fl. oz/Ac, 6 locations

## RHPP: root hair promoting polypeptide derived from Glycine max (GGIRAAPTGNER; Glycine max)
Soybean [1]; [4]
  yield advantage compared to control treatment: 1.9 Bu/Ac
  yield increase compared to fertilizer alone: 1.4 Bu/Ac
Soybean [1]; [5]
  Average Bu/Ac Change compared to Control Variety 1 and 2: +0.9 Bu/Ac
  Average Total Yield Bu/Ac Variety 1 and 2: 63.23 Bu/Ac
Soybean [1]; soybean variety 1 (AG3536), foliar at R2, 5 US Midwest locations, use rate Fl. oz/Ac: N-RAGE MAX 128, RHPP 4.0
  Average Total Yield Bu/Ac Variety 1: 65.42 Bu/Ac
Soybean [1]; soybean variety 2 (AG3832), foliar at R2, 5 US Midwest locations, use rate Fl. oz/Ac: N-RAGE MAX 128, RHPP 4.0
  Average Total Yield Bu/Ac Variety 2: 61.04 Bu/Ac
corn; [6]
  average yield: more than 209 Bu/Ac
  yield increase vs surfactant control: 3.52 Bu/Ac
corn; [7]
  Average Change in Bu/Ac compared to surfactant only control: +3.52 Bu/Ac
  Average Yield Bu/Ac: 209.67 Bu/Ac
corn; V5 corn, foliar 100 μM at 8.0 Fl. oz/Ac, vs surfactant only control
  win rate: 64%
Soybean [2]
  pod count vs non-ionic surfactant control: approximately doubled pod count
tomato; Bt.4Q7Flg22 16.7 μM at 4.0 Fl. oz/Ac, Gm.RHPP 100 μM at 3.2 Fl. oz/Ac
  change in fruit weight per plant vs no spray control: ~2%
tomato; Roma tomato, foliar at early bloom, 2 harvests, Bt.4Q7Flg22 4.0 Fl. oz/Ac, Gm.RHPP 3.2 Fl. oz/Ac
  Average Fruit Weight (grams) per Plant: 1397.1 grams
tomato; Roma tomato, foliar at early bloom, Bt.4Q7Flg22 4.0 Fl. oz/Ac, Gm.RHPP 3.2 Fl. oz/Ac
  Percentage Change in Fruit Weight Compared to No-Spray Control: +1.99%
Phakopsora pachyrhizi
  less Asian soybean rust leaf area damage compared to untreated control: 10.5-11.3%
Soybean [3]; Example 4, R2, 4 Fl. oz/Ac
  yield advantage: 0.31 Bu/Ac
Soybean [3]; second study, seed treatment
  win rate: 73%
  yield increase: 1.2 bu/Ac
Soybean [3]; third study, 8 fl oz/Ac
  yield advantage on top of foliar fertilizer: 1 Bu/AC
